Measurements as given in PubChem BioAssay AID488969 (Vanderbilt High Throughput Screening Facility, 2010).
The full ranking holds about 110,000 compounds; the median of “z-score” is about -0.1, and the highest 2% start at about 2. The list shows a part of the results.

These compounds were tested against Metabotropic glutamate receptor 8 (Rattus norvegicus) (UniProt P70579) (assay: rat mGluR8 modulators via GIRK flux, primary screen, cell-based, thallium flux, HTS (AID 488969)). Details: HEK293 rat mGluR8, GIRK (G protein-gated inwardly rectifying potassium channel) thallium flux, FluoZin2; at 10 µM; stronger effect = higher value; submaximal glutamate (EC20) added with thallium.
Chain of UniProt P70579 (P70579 whole entry, looked up): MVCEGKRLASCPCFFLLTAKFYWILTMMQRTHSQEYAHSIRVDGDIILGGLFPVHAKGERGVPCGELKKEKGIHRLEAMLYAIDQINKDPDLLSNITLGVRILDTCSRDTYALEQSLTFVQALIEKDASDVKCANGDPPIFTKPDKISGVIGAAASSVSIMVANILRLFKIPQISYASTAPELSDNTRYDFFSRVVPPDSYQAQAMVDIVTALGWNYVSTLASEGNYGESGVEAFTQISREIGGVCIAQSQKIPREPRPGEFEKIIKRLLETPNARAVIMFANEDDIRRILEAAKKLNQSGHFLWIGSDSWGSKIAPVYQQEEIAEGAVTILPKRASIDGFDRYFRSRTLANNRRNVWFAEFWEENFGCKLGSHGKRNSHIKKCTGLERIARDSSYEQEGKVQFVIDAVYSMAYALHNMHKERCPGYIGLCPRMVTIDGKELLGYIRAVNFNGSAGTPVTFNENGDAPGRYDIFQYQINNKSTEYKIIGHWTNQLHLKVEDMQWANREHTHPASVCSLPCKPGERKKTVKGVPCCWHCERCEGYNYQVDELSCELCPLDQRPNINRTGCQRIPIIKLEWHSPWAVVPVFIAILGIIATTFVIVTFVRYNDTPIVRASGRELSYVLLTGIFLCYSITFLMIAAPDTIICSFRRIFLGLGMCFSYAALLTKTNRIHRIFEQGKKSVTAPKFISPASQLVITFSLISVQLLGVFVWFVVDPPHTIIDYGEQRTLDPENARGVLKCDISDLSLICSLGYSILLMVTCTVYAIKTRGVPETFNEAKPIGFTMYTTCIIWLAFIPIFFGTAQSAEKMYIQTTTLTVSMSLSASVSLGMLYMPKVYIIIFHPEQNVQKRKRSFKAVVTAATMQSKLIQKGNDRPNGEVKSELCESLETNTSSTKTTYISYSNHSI
Work on `COc1ccc(C(=O)Nc2cccc(C(=O)N3CCN(C)CC3)c2)cc1` yielded a z-score of -0.312.
In the case of `O=C(c1cccc(Cl)c1)N1CCN(c2ccccn2)CC1`, the z-score is reported as 0.0357.
`CCNc1nc(NC(C)C)nc(N(n2cnnc2)S(=O)(=O)c2ccc(C)cc2)n1` was tested, and the z-score was -0.336.
For `COCCNC(=O)CC(c1ccccc1)c1ccccc1`, the z-score was -0.175.
Work on `O=C(COC(=O)c1cccnc1)c1ccc(Cl)c(Cl)c1` yielded a z-score of 0.111.
`CCC(Oc1ccccc1)C(=O)N1CCN(C(=O)C(CC)Oc2ccccc2)CC1` (stereo not drawn) showed a z-score of -0.159.
`CCc1nnc(NC(=O)c2ccc(COc3ccccc3)o2)s1` showed a z-score of -0.345.
In the case of `CCNC(=S)Nc1ccc(Cl)cc1Cl`, the z-score is reported as 0.108.
Work on `COc1ccc(/C=N/n2cnnc2SCc2ccc(OC)cc2)cc1` yielded a z-score of -0.739.
In the case of `COc1ccc(CNC(=S)NCc2ccc(OC(C)C)cc2)cc1`, the z-score is reported as 0.57.
`CCOc1cc(C(=O)Nc2ccccc2F)cc(Br)c1OCC` was tested, and the z-score was 0.353.
In the case of `CN(C)CCNC(=O)C12CC3(C)CC(C)(CC(C)(C3)C1)C2`, the z-score is reported as 0.238.
`Cc1ccc(Nc2nc(N)nc(CN3CCN(Cc4ccc5c(c4)OCO5)CC3)n2)cc1Cl` showed a z-score of -0.81.
`Cc1oc2nc(SCC(=O)NC3CCCCC3)nc(N)c2c1C` gave a z-score of -0.638.
In the case of `CC1(C)OC(C(N)=O)C(C(N)=O)O1` (stereo not drawn), the z-score is reported as 0.57.
`Cc1nnc(SCC(=O)Nc2ccc(Cl)cn2)s1` showed a z-score of -1.36.
`O=C(Cc1ccc(Cl)cc1)NNC(=O)Nc1cccc2ccccc12` was tested, and the z-score was -0.207.
`Cc1onc(-c2c(Cl)cccc2Cl)c1C(=O)c1c[nH]c(C(=O)NCCCN2CCOCC2)c1` showed a z-score of -0.498.
Work on `CC(C)C(NC(=O)/C=C/c1cccc([N+](=O)[O-])c1)C(C)C` yielded a z-score of 0.0785.
Work on `O=C(CSc1nnc(-c2cc3ccccc3cc2O)n1Cc1ccco1)N1CCc2ccccc2C1` yielded a z-score of -0.103.
Work on `O=C(O)CCSc1nnc(-c2ccc3c(c2)OCO3)o1` yielded a z-score of -1.25.
`COc1ccc(OC)c(NC(=S)NCCSc2ccc(C)cc2)c1` gave a z-score of 0.00717.
Work on `CCCC(=O)OC1CC(C)N(C(=O)c2ccccc2)c2ccc(C)cc21` (stereo not drawn) yielded a z-score of -0.333.
`Cc1ccc(CCP(=O)(O)CN2CCOCC2)cn1` was tested, and the z-score was 0.0859.
In the case of `COc1cc(OC)cc(C(=O)Nc2ncc3c(n2)CC(C)(C)CC3=O)c1`, the z-score is reported as -0.87.
In the case of `Cc1ccc(C(=O)N/N=C2/NC(=O)CC(C(=O)Nc3ccccc3)S2)cc1` (stereo not drawn), the z-score is reported as 0.0145.
With `COc1ccc(N(C(=O)COc2ccc(F)cc2)S(=O)(=O)c2ccc(C)cc2)cc1` the z-score was -0.382.
Work on `N#CC1=C2SCC(O)(c3ccccc3)N2C(=O)CC1c1ccccc1F` (stereo not drawn) yielded a z-score of -0.0286.
Work on `NC1=NC2(CCCCC2)n2c(nc3ccccc32)N1` yielded a z-score of 1.41.
For `Cc1ccc(S(=O)(=O)CC(N)=O)cc1`, the z-score was -0.286.
With `Cc1nn(Cc2c(Cl)cccc2Cl)c(C)c1NC(=O)CCCn1nc([N+](=O)[O-])c(Cl)c1C` the z-score was -0.326.
Compound `Cc1ccc(C(c2sc3nc(C)nn3c2O)N2CCN(c3ccccc3)CC2)cc1` (stereo not drawn) has a z-score of -0.127.
`Cc1cccc(OCCCCc2c(C)n[nH]c2C)c1` showed a z-score of 0.289.
With `O=C(CNS(=O)(=O)c1ccc2ccccc2c1)OCc1nnc(-c2ccccc2)o1` the z-score was -0.683.
For `Cn1c(=O)cc(OCCCC(=O)NCCN2CCN(c3ccccc3F)CC2)c2ccccc21`, the z-score was -0.123.
`Cc1ccc(CNC(=O)C(NS(=O)(=O)c2ccc3nc(C)sc3c2)C(C)C)cc1` (stereo not drawn) gave a z-score of 0.342.
With `COCCNC(=O)NC(=O)COC(=O)c1cc([N+](=O)[O-])ccc1Sc1nc(C)cs1` the z-score was -0.177.
With `O/N=C/c1cc(Br)ccc1OCc1cccc(F)c1` the z-score was -0.322.
In the case of `O=C(Nc1ccc(F)cc1)c1ccccc1Oc1ccc(C(F)(F)F)cc1[N+](=O)[O-]`, the z-score is reported as -0.194.
`COC(=O)Nc1sc2nc(C)cc(C)c2c1-n1cccc1` was tested, and the z-score was 0.141.
In the case of `CCOc1ccc(Cl)cc1S(=O)(=O)N1CCN(c2ccc(F)cc2)CC1`, the z-score is reported as -0.552.
With `CCC(NC(=S)NCc1ccccc1)C(=O)O` (stereo not drawn) the z-score was -0.526.
`c1cc2c(cc1C1CCCCC1)c1c3n2CCCNC3CCC1` (stereo not drawn) gave a z-score of 0.609.
In the case of `N#Cc1cc2c(nc1SCC(=O)Nc1sc3c(c1C#N)CCC3)CCC2`, the z-score is reported as -0.138.
Compound `Cc1nn2c(=O)cc(CSc3nc4ccccc4[nH]3)nc2s1` has a z-score of -0.335.
For `Nc1nc(Br)c2c(F)cccc2c1-c1ccc(Cl)cc1`, the z-score was 0.246.
Work on `O=C(CCNS(=O)(=O)c1ccc(Br)s1)NC1CCCC1` yielded a z-score of 0.223.
Compound `Cc1ccc(OCC(=O)O/N=C(\N)Cc2cccs2)cc1C` has a z-score of -0.196.
Work on `CCn1c2ccccc2c2nnc(SCc3ccc(C(=O)OC)o3)nc21` yielded a z-score of -0.221.
`CC(OC(=O)c1cc2sccc2n1C)C(=O)NCc1ccc2c(c1)OCO2` (stereo not drawn) was tested, and the z-score was -0.018.
`Nc1nc(SCc2ccc([N+](=O)[O-])cc2)nc2nc3c(cc12)CCCC3` was tested, and the z-score was 0.353.
`O=C(NCc1cc(C(F)(F)F)cc(C(F)(F)F)c1)C1CC(c2ccccc2[N+](=O)[O-])=NO1` (stereo not drawn) gave a z-score of -0.0149.
In the case of `CCOc1ccc(C(=O)NCC(=O)OCC(=O)N2CCCCC2)cc1`, the z-score is reported as 0.2.
`CN(C)CCCN1C(=O)C(O)=C(C(=O)c2cc3ccccc3o2)C1c1ccccc1` (stereo not drawn) gave a z-score of -0.0674.
For `CCOC(=O)C(C)(C)NS(=O)(=O)c1ccc(Cl)c([N+](=O)[O-])c1`, the z-score was -0.285.
`COCc1cc(C)nc2sc(C(=O)OC(C)C)c(N)c12` was tested, and the z-score was -0.585.
In the case of `O=C(Nc1ccccc1OC(=O)c1ccc(Cl)cc1)c1ccc(Cl)cc1`, the z-score is reported as -0.196.
`Cc1cc(C)c2c(N=NN3CCCCC3)[nH]nc2n1` gave a z-score of -0.0999.
Compound `COc1ccc(C2c3c(ncn(CCN4CCOCC4)c3=N)Oc3ccc4ccccc4c32)cc1OC` (stereo not drawn) has a z-score of 0.922.
`COCCNC(=O)C(OC(=O)CC1Sc2ccccc2NC1=O)c1ccccc1` (stereo not drawn) was tested, and the z-score was -0.53.
For `CN(CC(=O)N1CCc2ccccc21)S(=O)(=O)c1cccs1`, the z-score was -0.159.
`CCOC(=O)C1=C(N)OC2=C(C(=O)CC(C)(C)C2)C1c1ccco1` (stereo not drawn) showed a z-score of -0.712.
Compound `O=C(Nc1ccc(N=Nc2ccccc2)cc1)c1cccc(Cl)c1` has a z-score of 0.145.
Work on `CCSc1nc2ccccc2n1Cc1ccccc1F` yielded a z-score of 0.121.
With `O=S(=O)(c1ccccc1C(F)(F)F)N1CCC(n2cnc3ccccc32)CC1` the z-score was 0.446.
`O=C(NCc1ccccn1)C1CC(c2ccc(Cl)c(Cl)c2)=NO1` (stereo not drawn) was tested, and the z-score was 0.79.
With `N#Cc1nc(-c2cccs2)oc1N1CCOCC1` the z-score was 1.01.
In the case of `COc1ccc(CC(=O)n2nc(-c3ccc(Cl)cc3)nc2NCc2ccco2)cc1`, the z-score is reported as 0.246.
In the case of `O=C(NCCC1=CCCCC1)c1ccc2c(c1)N(Cc1ccccc1)C(=O)CS2`, the z-score is reported as -1.88.
`COc1ccc(N2CCSC2C(=O)NN)cc1` (stereo not drawn) was tested, and the z-score was 2.09.
For `CC1(C)CC(=O)C2=C(C1)N(Cc1ccco1)C(=O)C2(NC(=O)c1cccnc1)C(F)(F)F` (stereo not drawn), the z-score was 0.054.
Work on `COc1nc(NC(C)(C)C)nc(Oc2ccc(=O)n(C)n2)n1` yielded a z-score of 0.992.
Work on `CCN(CCCNC(=O)CN(C)S(=O)(=O)c1ccc2c(c1)CCC(=O)N2)c1cccc(C)c1` yielded a z-score of -0.598.
`CC(C)(Cc1nc2ccccc2[nH]1)C(=O)O` showed a z-score of 0.49.
`COc1ccc(CNS(=O)(=O)c2cccc(S(=O)(=O)N3CCOCC3)c2)cc1` gave a z-score of 0.231.
In the case of `O=C(CCCCn1c(=O)c2ccccc2n(Cc2ccc(F)cc2)c1=O)NCc1ccco1`, the z-score is reported as -1.07.
Compound `CN(C)S(=O)(=O)c1cccc(C(=O)NCc2ccco2)c1` has a z-score of -0.126.
Compound `COc1cc(/C=C2/C(=O)ON=C2C)ccc1OCc1ccccc1F` has a z-score of 0.886.
`Cc1ccc(S(=O)(=O)NC(=O)CSc2nc3ccccc3s2)cc1` was tested, and the z-score was -0.103.
Compound `CC(C)CCN1CCNC(=O)C1CC(=O)Nc1ccc(F)cc1` (stereo not drawn) has a z-score of -0.94.
Work on `COc1ccc(C(=O)N/C(=C\c2cn(C)c3ccccc23)C(=O)OCC(C)C)cc1` yielded a z-score of -0.102.
For `Nc1ccc(-n2nncc2-c2ccccc2)cc1`, the z-score was -0.0244.
Compound `Nc1nc(SCCOc2ccccc2)n[nH]1` has a z-score of -0.0514.
`O=C(CSc1nc(-c2ccco2)cc(C(F)(F)F)n1)NCc1cccs1` showed a z-score of -0.1.
Work on `C=CCn1c(CSc2nc3ccccc3s2)n[nH]c1=S` yielded a z-score of 0.967.
Compound `CCOC(=O)c1nnn(-c2nonc2N)c1C` has a z-score of -0.267.
`COc1cc(/C=N/Nc2ccc(F)cc2F)cc(OC)c1O` gave a z-score of 0.857.
Work on `Cc1cccc(Oc2c(C=O)c3ccccc3n2C)c1` yielded a z-score of -0.785.
With `CCc1nc(SCC(=O)Nc2cccc(C(F)(F)F)c2)c2c(=O)n(C)c(=O)n(C)c2n1` the z-score was -0.0329.
With `COc1cccc(C(=O)Nc2ccc(N3CCN(Cc4ccccc4)CC3)cc2)c1` the z-score was -0.07.
Work on `CNC(=O)c1cccc(N2CCCC2=O)c1` yielded a z-score of -0.0243.
`Cc1noc(C)c1CSc1nnc2c(C)cc3ccccc3n12` gave a z-score of 0.0174.
With `Cc1ccc(NC2(C#N)C(=O)Nc3ccccc32)cc1` (stereo not drawn) the z-score was -0.263.
`CC(OC(=O)c1ccc(F)cc1)C(=O)Nc1nc(-c2cccc([N+](=O)[O-])c2)cs1` (stereo not drawn) was tested, and the z-score was -0.681.
`COC(=O)C1=C(C)N(c2ccc(C(=O)OC)cc2)C(=O)C1` gave a z-score of 0.602.
In the case of `COc1ccc(C(=O)CCC(=O)O)cc1`, the z-score is reported as -0.601.
`COCCNC(=O)CCc1c(C)nc2c(-c3ccc(F)cc3)c(C)nn2c1C` showed a z-score of -0.234.
`CCOC(=O)c1c(C)[nH]c(C(=O)COC(=O)COc2ccccc2C=O)c1C` was tested, and the z-score was -0.645.
`CCn1c2ccccc2c2cc(NC(=O)N3CCOCC3)ccc21` gave a z-score of -0.213.
`O=C(O)CCNS(=O)(=O)c1ccc(Oc2ccccc2Cl)cc1` gave a z-score of 0.0172.
Work on `O=C(CCCSc1nc2ccccc2[nH]1)NC1=NCCS1` yielded a z-score of -0.389.
Work on `COc1ccc(S(=O)(=O)N(C)CC(=O)Nc2cccc(C(C)=O)c2)cc1C` yielded a z-score of 0.107.
In the case of `Cn1nc(N)c2c(-c3ccccc3)c(C#N)c(N)nc21`, the z-score is reported as 0.569.
`COc1ccc(CN2CC34C=CC(O3)C(C(=O)O)C4C2=O)cc1` (stereo not drawn) was tested, and the z-score was 0.133.
Work on `Cc1c(Cl)cccc1NC(CC(=O)c1ccccc1)C(=O)OCC(=O)c1cccs1` (stereo not drawn) yielded a z-score of -0.547.
For `O=C(O)CCCCCNS(=O)(=O)c1c(Cl)cccc1Cl`, the z-score was 1.2.
For `Cc1c(Cc2ccccc2)sc(NC(=O)/C=C/c2cccc3ccccc23)c1C(N)=O`, the z-score was -0.326.
`O=C(c1ccccc1)c1ccccc1C(=O)N1CCOCC1` gave a z-score of -0.379.
`Cc1ccc(-c2nc3cnccn3c2Nc2c(C)cccc2C)o1` showed a z-score of -0.399.
Compound `CCSc1nnc(NC(=O)CSc2ncccn2)s1` has a z-score of -0.207.
`O=c1oc(-c2cccs2)nc2ccc(Br)cc12` was tested, and the z-score was -0.856.
Compound `CCCCCC(=O)N1CCCC(c2nc(-c3ccc(OC)cc3)no2)C1` (stereo not drawn) has a z-score of -2.17.
`Cc1ccc(N2C(=O)CSC2c2ccc3c(c2)OCO3)cc1` (stereo not drawn) gave a z-score of 0.117.
